Results taken from the supplement of paper PMC5655136.
Read counts after selection give these values, which scatter widely.

System: NB7
Assay: fold depletion of shRNA, plasmid library share / infected cells without Dox share (9 days) (ratio); higher = more depleted after infection (more toxic, leaky expression from a Tet-inducible vector; NB7 is a neuroblastoma line without caspase-8)
[1] = shRNA pool: CD95L ORF + CD95L 3'UTR + Venus libraries
[2] = shRNA pool: CD95 ORF + CD95 3'UTR + Venus libraries
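Also: shRNA barcodes quantified by deep sequencing of PCR amplicons from cellular DNA, counts expressed as percent of each subpool, ratio averaged over two biological duplicates.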

Row | Sequence | fold depletion of shRNA [1] | fold depletion of shRNA [2]
1 | CTCTCGGCATGGACGAGCTGT | 1.44 | 2.12
2 | CTCTCTCTGGTCAATTTTGAG | 0.907 | 
3 | CTCTCTGGTCAATTTTGAGGA | 1.13 | 
4 | CTCTGAGAAGATCATATTTAT |  | 1.17
5 | CTCTGATAATTCTAGAGATTT |  | 0.813
6 | CTCTGGCATCTAACATATGAT |  | 4.66
7 | CTCTGGGCTGCCATGTGAAGA | 0.824 | 
8 | CTCTGGTCAATTTTGAGGAAT | 1.82 | 
9 | CTCTGTGCCCAGAAGGCCTGG | 1.03 | 
10 | CTCTTCCACCTACAGAAGGAG | 1.15 | 
11 | CTCTTGCAGAGAAAATTCAGA |  | 0.803
12 | CTCTTGTCATACCCCCAAGTT |  | 2.03
13 | CTGAAAAAAAGGAGCTGAGGA | 1.44 | 
14 | CTGAAACAGTGGCAATAAATT |  | 2.35
15 | CTGAAAGAGGCCAATGCCCCA | 1.15 | 
16 | CTGAAATATCAGTTACTGAAC |  | 1.03
17 | CTGAAGAAGAGAGGGAACCAC | 0.722 | 
18 | CTGAAGAGCCAACATATTTGT |  | 1.9
19 | CTGAAGCTGATCTGCACCACC | 0.791 | 1.04
20 | CTGAAGGGCATCGACTTCAAG | 0.918 | 0.854
21 | CTGACAATCAACTCTAATAGT | 2.09 | 
22 | CTGACATCAACTCCAAGGGAT |  | 2.68
23 | CTGACCCTGAAGCTGATCTGC | 1.53 | 0.837
24 | CTGAGAAGATCATATTTATGT |  | 0.875
25 | CTGAGAGTATTTAGGCAGATT | 1.85 | 
26 | CTGAGCAAAGACCCCAACGAG | 1.22 | 1.26
27 | CTGAGCCACAAGGTCTACATG | 0.265 | 

Row | Sequence | fold depletion of shRNA [1] | fold depletion of shRNA [2]
28 | CTGAGCCATCGGTGAAACTAA | 3.5 | 
29 | CTGAGCTACCAGTCCGCCCTG | 0.64 | 0.978
30 | CTGAGCTCTCTCTGGTCAATT | 1.39 | 
31 | CTGAGGAAAGTGGCCCATTTA | 3.56 | 
32 | CTGAGGATTTAAGGGATGGAA | 0.51 | 
33 | CTGAGTATATGCAATTAGTGT |  | 0.506
34 | CTGATAATTCTAGAGATTTTA |  | 0.679
35 | CTGATCATTTATATGTCAACG | 0.78 | 
36 | CTGATCTGCACCACCGGCAAG | 2.94 | 2.08
37 | CTGATGTTGACTTGAGTAAAT |  | 1.71
38 | CTGCACAGTCAATGGGGATGA |  | 0.818
39 | CTGCACCACCGGCAAGCTGCC | 0.562 | 1.03
40 | CTGCACCCGGACCCAGAATAC |  | 1.41
41 | CTGCAGTGCTTCGCCCGCTAC | 1.55 | 2.26
42 | CTGCATCATGATGGCCAATTC |  | 0.992
43 | CTGCCAAGAAGGGAAGGAGTA |  | 1.14
44 | CTGCCACCCCTGAAGAAGAGA | 4.17 | 
45 | CTGCCATAAGCCCTGTCCTCC |  | 0.624
46 | CTGCCATGTGAAGAGGGAGAA | 1.24 | 
47 | CTGCCCGACAACCACTACCTG | 1.83 | 1.27
48 | CTGCCCGTGCCCTGGCCCACC | 0.57 | 0.612
49 | CTGCCTCCAAGGATGTTTAAA |  | 2.74
50 | CTGCGTGCCCTGCCAAGAAGG |  | 1.07
51 | CTGCTACAAATGGCAGCTTAT |  | 0.995
52 | CTGCTCTCAGAGAAAGTAGCT |  | 2.36
53 | CTGCTGCCCGACAACCACTAC | 2.76 | 1.06
54 | CTGCTGGAGTTCGTGACCGCC | 0.767 | 0.969

Row | Sequence | fold depletion of shRNA [1] | fold depletion of shRNA [2]
55 | CTGCTTCGTAATTGGCATCAA |  | 2.31
56 | CTGCTTGGTTTTTTACTGGGT |  | 0.736
57 | CTGCTTTCTGGAGTGAAGTAT | 2.07 | 
58 | CTGGAACCACCTAAAGAACTT |  | 6.6
59 | CTGGACCCTCCTACCTCTGGT |  | 3.42
60 | CTGGACGGCGACGTAAACGGC | 0.846 | 0.742
61 | CTGGAGTACAACTACAACAGC | 2.14 | 1.57
62 | CTGGAGTGAAGTATAAGAAGG | 0.745 | 
63 | CTGGAGTTCGTGACCGCCGCC | 0.77 | 0.522
64 | CTGGATTTAGGAATTGCTCTT |  | 4.35
65 | CTGGCAGCATCTTCACTTCTA | 1 | 
66 | CTGGCATCTAACATATGATTC |  | 1.39
67 | CTGGCCCACCCTCGTGACCAC | 0.87 | 0.778
68 | CTGGCTGTAAATACTGCTTGG |  | 1.38
69 | CTGGGCATCTGGACCCTCCTA |  | 0.711
70 | CTGGGCCCCTCCAGGCACAGT | 0.194 | 
71 | CTGGGCTACGGCCTGCAGTGC | 1.24 | 1.07
72 | CTGGGCTGCCATGTGAAGAGG | 2.46 | 
73 | CTGGGCTGTACTTTGTATATT | 0.676 | 
74 | CTGGGGATGTTTCAGCTCTTC | 1.81 | 
75 | CTGGGGCACAAGCTGGAGTAC | 0.771 | 0.945
76 | CTGGGTACATTTTATCATTTA |  | 0.861
77 | CTGGTCAAAGGAGGCCACCAC | 0.673 | 
78 | CTGGTCGAGCTGGACGGCGAC |  | 0.966
79 | CTGGTGAACCGCATCGAGCTG | 0.763 | 0.57
80 | CTGGTGATGATGGAGGGGAAG | 0.856 | 
81 | CTGGTTGCCTTGGTAGGATTG | 2.37 | 

Row | Sequence | fold depletion of shRNA [1] | fold depletion of shRNA [2]
82 | CTGGTTTGGAGATACTAACTG |  | 1.28
83 | CTGTAAATACTGCTTGGTTTT |  | 0.939
84 | CTGTAAATGTAAACTGTGAAG |  | 1.6
85 | CTGTACTTTGTATATTCCAAA | 0.377 | 
86 | CTGTAGCTCCTCAACTCACCT | 0.423 | 
87 | CTGTAGTATGAATGTAATCAG |  | 1.14
88 | CTGTATGTGAACACTGTGACC |  | 3.81
89 | CTGTCCAACCTCTGTGCCCAG | 0.29 | 
90 | CTGTCCTCCAGGTGAAAGGAA |  | 2.78
91 | CTGTCTTTCAGATACATGGTT | 3.05 | 
92 | CTGTGAAGATAGTTATAAACT |  | 0.756
93 | CTGTGTCTCCTTGTGATGTTT | 3.72 | 
94 | CTGTTACTACAGTTGAGACTC |  | 0.685
95 | CTGTTCACCGGGGTGGTGCCC | 0.99 | 0.599
96 | CTGTTGCTAGATTATCGTCCA |  | 1.22
97 | CTTAAAAATCATTGATTGTCA | 4.96 | 
98 | CTTAATAGCTGGCTGTAAATA |  | 1.23
99 | CTTAATAGTCCACCAAAAGGC |  | 8.62
100 | CTTACCAGTGCTGATCATTTA | 2.61 | 
101 | CTTACGTCTGTTGCTAGATTA |  | 1.73
102 | CTTACTACTATCCTACGTTTA |  | 0.723
103 | CTTAGAAATTCTAGCCTGGTT |  | 1.27
104 | CTTAGAAGTGGAAATAAACTG |  | 0.668
105 | CTTAGTGCCTGAGAGTATTTA | 1.66 | 
